# In publication PMC4336329 (PLoS ONE, 2015):
# In all, about 310,000 compounds went through this assay and about 14,000 (4.5%) showed an effect of 50% or more. Effects have a minus sign here. The list shows a part of the results.
# Molecular target: human ether-à-go-go-related gene (hERG) potassium channel (human, UniProt Q12809)
# Assay: primary screen, population patch clamp on CHO cells stably expressing hERG
# 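Note: peak tail current of the secondary pulse compared with the same well before compound.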
# Sequence of human ether-à-go-go-related gene (hERG) potassium channel (Q12809 whole entry, looked up): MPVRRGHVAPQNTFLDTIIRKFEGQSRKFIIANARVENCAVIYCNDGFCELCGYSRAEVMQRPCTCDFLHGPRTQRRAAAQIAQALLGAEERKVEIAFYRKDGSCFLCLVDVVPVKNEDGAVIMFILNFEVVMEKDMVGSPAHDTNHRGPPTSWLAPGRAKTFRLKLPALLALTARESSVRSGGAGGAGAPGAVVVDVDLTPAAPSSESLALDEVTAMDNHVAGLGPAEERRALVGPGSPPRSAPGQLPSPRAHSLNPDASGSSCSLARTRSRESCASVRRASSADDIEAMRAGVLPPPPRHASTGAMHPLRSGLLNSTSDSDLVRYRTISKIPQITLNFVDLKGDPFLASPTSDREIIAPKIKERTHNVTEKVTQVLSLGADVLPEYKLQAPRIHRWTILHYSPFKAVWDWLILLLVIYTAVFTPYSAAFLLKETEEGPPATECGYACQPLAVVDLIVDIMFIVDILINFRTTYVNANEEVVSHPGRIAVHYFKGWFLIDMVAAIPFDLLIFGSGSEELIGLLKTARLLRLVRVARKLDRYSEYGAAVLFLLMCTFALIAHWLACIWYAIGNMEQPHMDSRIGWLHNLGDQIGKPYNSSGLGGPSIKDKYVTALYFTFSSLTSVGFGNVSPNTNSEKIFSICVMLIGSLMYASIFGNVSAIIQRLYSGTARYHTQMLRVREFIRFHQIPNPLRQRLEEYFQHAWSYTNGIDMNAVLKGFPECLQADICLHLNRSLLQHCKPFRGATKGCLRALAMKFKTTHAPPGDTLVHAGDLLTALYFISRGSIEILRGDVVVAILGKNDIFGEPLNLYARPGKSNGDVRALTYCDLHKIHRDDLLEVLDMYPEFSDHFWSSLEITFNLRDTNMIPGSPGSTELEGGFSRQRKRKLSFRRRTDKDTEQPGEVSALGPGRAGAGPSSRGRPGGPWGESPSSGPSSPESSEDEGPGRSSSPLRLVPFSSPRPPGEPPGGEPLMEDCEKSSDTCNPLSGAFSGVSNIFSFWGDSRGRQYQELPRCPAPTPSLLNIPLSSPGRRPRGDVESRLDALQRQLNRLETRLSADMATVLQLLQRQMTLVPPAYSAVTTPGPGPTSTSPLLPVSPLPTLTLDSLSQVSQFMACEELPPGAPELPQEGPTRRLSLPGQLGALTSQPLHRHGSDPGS
row,SMILES,"hERG current change (%, negative = inhibition) at 10uM"
1,Cc1cccc(C)c1OCC(O)Cn1c2ccccc2c2ccccc21 (stereo not shown),6.83%
2,COc1cc(OC)c(OC)cc1/C=C1\CC(C)C/C(=C\c2cc(OC)c(OC)cc2OC)C1=O (stereo not shown),7.36%
3,CC(C)CN(C(=O)CN(C)C(=O)Cc1ccccc1Cl)c1c(N)n(CC(C)C)c(=O)[nH]c1=O,20.7%
4,COc1cccc(CC(=O)OCC(=O)NC(=O)c2ccc(OC(F)F)cc2)c1,-16.7%
5,CCOC(=O)c1ccc(NC(=O)c2ccc(NS(C)(=O)=O)cc2)cc1,-8.5%
6,Cc1c(Cl)cccc1NC(=O)Nc1ccc(C(=O)N2CCCC2)cc1,-0.694%
7,Cc1ccc2nc(SCC(=O)NCc3ccco3)nc(=O)n2c1,8.08%
8,COC(=O)N/N=C\c1c(C)nn(-c2ccccc2)c1Cl,-12.7%
9,CNC(=S)N1N=C(c2ccccc2)CC1c1ccccc1Cl (stereo not shown),9.32%
10,COc1ccccc1NC(=O)c1cnc(SC)nc1,19.2%
11,COC(=O)C1=C(C)Nc2[nH]c(=S)[nH]c(=O)c2C1c1ccc(O)cc1 (stereo not shown),8.44%
12,COc1cccc(CNC(=O)COc2cc3c(c4oc(=O)cc(C)c24)CCC(C)(C)O3)c1,-3.43%
13,C(=N\c1nc2ccccc2n1Cc1ccccc1)/c1cccs1,-6.17%
14,O=C(NCc1ccco1)c1sc(=S)n2c1[nH]c(=O)c1ccccc12,-16.8%
15,CCOC(=O)/C=C/c1ccc2c(c1)S(=O)(=O)N(c1cccc(OC)c1)[C@H]2CC(=O)OCC,-0.723%
16,Cc1ccc(NC2CCCN(C(=O)CCCN3CCCCC3=O)C2)cc1C (stereo not shown),-2.7%
17,O=C(O)C1=C[C@@H](c2ccc(Br)cc2)C[C@@H](OCc2ccc(CO)cc2)O1,18.2%
18,COCCn1c(C)cc(C(=O)CSc2nc3ccccc3s2)c1C,8.05%
19,Fc1ccc(NC(=S)N2CCOCC2)cc1Cl,17.7%
20,CC(C(=O)N(C)C)N(C#N)c1nc(N(C)C)nc(N(C)C)n1 (stereo not shown),-8.07%
21,Cc1cc(NC(=O)CSc2nc3ccccc3c(=O)n2CCCC(=O)NCc2ccccc2)n[nH]1,-8.72%
22,CC(C)CN(C(=O)c1ccc(S(=O)(=O)N2CCOCC2)cc1)C1CCS(=O)(=O)C1 (stereo not shown),4.93%

row,SMILES,"hERG current change (%, negative = inhibition) at 10uM"
1,CCOC(=O)N1CCN(Cc2nc(-c3ccc(OC)cc3)no2)CC1,-4.74%
2,COC(=O)C1CCN(C(=O)COC(=O)c2ccc3[nH]c4c(c3c2)CCCC4)CC1,8.9%
3,Cc1cccc(NC(=S)NNC(=O)CC(C)O)c1C (stereo not shown),14.5%
4,COc1cc(/C=C(\C#N)C(=O)Nc2cccc(C(=O)O)c2)ccc1OCc1ccc(F)cc1,22.6%
5,Cc1csc(=O)n1CCC(=O)OCC(=O)Nc1cc([N+](=O)[O-])ccc1Cl,-46.1%
6,COc1cc(-c2nnc3n2N=C(c2ccccc2)CS3)cc(OC)c1OC,-8.51%
7,COc1cccc(-n2nc(C(N)=O)c(O)cc2=O)c1,39.9%
8,Nc1ccc(Nc2ccc([N+](=O)[O-])cc2[N+](=O)[O-])cc1,-11.3%
9,Cc1cc([N+](=O)[O-])ccc1-c1ccc(C2Nc3ccccc3C(=O)N2O)o1 (stereo not shown),-24.1%
10,CCn1cc([N+](=O)[O-])c(C(=O)N2N=C(c3ccc(O)c(OC)c3)CC2c2ccccc2O)n1 (stereo not shown),16.4%
11,Cc1cccc(NC(=S)NCC23C=CC(O2)C2C(=O)N(c4ccc(Cl)cc4)C(=O)C23)c1 (stereo not shown),4.35%
12,Cn1nc(C(=O)NCCc2ccc(S(N)(=O)=O)cc2)c2ccccc2c1=O,1.47%
13,Cc1ccc(NC(=O)CSc2nnc(Cc3cccn3C)n2-c2ccc(F)cc2)cc1,-31.1%
14,Cc1nc(SCC(=O)NC2CCCC2)[nH]c(=O)c1Cc1ccccc1,7.93%
15,COC(=O)c1ccccc1OC(=O)c1cc[n+]([O-])cc1,9.67%
16,Cc1ccccc1CN1CCN(Cc2ccc3cccc(F)c3n2)CC1CCO (stereo not shown),-32.7%
17,CCN(CC)c1cccc(OC(=O)c2cccnc2Cl)c1,-7.41%
18,O=C1NC2(CCCCC2)C(=O)N1CCS(=O)(=O)Oc1ccc(Br)cc1,-2.58%
19,CC(=O)N(Cc1ccccc1)c1ccccc1C(=O)O,13.1%
20,CCN(CC)C(=O)c1ccc(NC(=O)COc2ccc([N+](=O)[O-])cc2Cl)cc1,-25.2%
21,COc1ccc(-c2csc(NC(=O)c3cc(C)on3)c2C#N)cc1OC,8.72%
